The supplement of paper PMC10126150
Values marked as one replicate rest on one cluster of the flow cell; about a third of the high ones do not repeat.

What follows are sequences tested on ATP (assay: switch fluorescence ratio, 500 uM ATP over buffer (Cy3 cluster intensity, sum of 5 cycles each) (fold (ratio)); higher = stronger signal-on switching upon ATP binding; sequences stand for … in TCGTCGGCAGCGTCAGATGTGTATAAGAGACAGTTTTTTTTTTTTTTTTTTTTTTTTT…TC). Conditions: aptamer strand: ATP DNA aptamer (quencher-CACCTGGGGGAGTATTGCGGAGGAAGG + anchor), 100 nM annealed; ATP concentration: 500 uM; one replicate.
In short: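 Values give the fluorescence ratio for each switch-domain sequence, averaged from per-cluster ratios of summed target-cycle to summed buffer-cycle Cy3 intensity. The Cy3-labelled switching-strand clusters sat on a modified Illumina MiSeq flow-cell, were annealed to 100 nM quencher-labelled ATP aptamer, and were imaged in selection buffer, then after 15 min with 500 uM ATP at 22 °C. Five cycles ran with NaOH stripping and re-annealing between them, and clusters outside 100-1000 RFU were excluded.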
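Also: ATP exposure 15 min at 22 °C before imaging.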

Sequence | switch fluorescence ratio
GCCGGCTCTC | 1.01
GCCGGGCACA | 0.969
GCCGGTCACG | 0.992
GCCGTGAAGG | 1.01
GCCGTGCCTG | 0.924
GCCGTGCGCC | 1.05
GCCGTGGGGA | 1.01
GCCGTGGTTG | 0.958
GCCGTGTTCA | 1.03
GCCGTTTGAT | 1.03
GCCTAAGCGA | 1.08
GCCTAATCTC | 1.01
GCCTACAGGA | 1.03
GCCTAGTTAT | 1.01
GCCTATAGG | 1.01
GCCTATTTAA | 0.994
GCCTCAAGAT | 1.42
GCCTCATTCG | 0.993
GCCTCTTTGT | 0.983
GCCTGAAGGC | 0.969
GCCTGAATTT | 0.953
GCCTGACACG | 1.12
GCCTGATTCA | 1
GCCTGCAATC | 4.43
GCCTGCGTGA | 1.24

Sequence | switch fluorescence ratio
GCCTGTATAA | 0.977
GCCTTACGAG | 1.63
GCCTTAGGCG | 0.997
GCCTTGCAGC | 0.945
GCCTTGCATT | 1.07
GCCTTTGACA | 0.987
GCGAAAAGGT | 0.962
GCGAAAGAGG | 1.01
GCGAAAGCCT | 1.04
GCGAAATATT | 0.981
GCGAAATTTT | 1
GCGAACCCGA | 1.03
GCGAAGAAAC | 0.99
GCGAAGATAG | 1.03
GCGAAGGAAC | 0.998
GCGAAGGTGC | 1.5
GCGAAGTAGC | 1.07
GCGAATACAA | 1.08
GCGAATCTGC | 1.03
GCGAATGGGG | 1.04
GCGAATTCGA | 1.01
GCGAATTCTC | 1.09
GCGACAATCG | 1.04
GCGACCCGTG | 1.22
GCGACCCTTC | 1.17

Sequence | switch fluorescence ratio
GCGACTATTA | 1.01
GCGACTGGCC | 1.09
GCGACTTCCG | 0.997
GCGAGAGTA | 0.954
GCGAGCACGT | 0.985
GCGAGCGCCC | 0.993
GCGAGGATTG | 1.01
GCGAGGGAAG | 1.03
GCGAGGGGAC | 0.993
GCGAGGGGG | 0.942
GCGAGTACTA | 1.08
GCGATGCAGC | 1.16
GCGATTCCT | 1.02
GCGATTGCTG | 0.999
GCGCAATAGG | 2.59
GCGCATCTTA | 0.999
GCGCCAGTTA | 0.973
GCGCCAGTTC | 1.07
GCGCCCA | 0.997
GCGCCGGAAG | 1.12
GCGCCGGTCC | 1.09
GCGCGACTGA | 1.06
GCGCGAGCGT | 0.928
GCGCGCATCC | 0.98
GCGCGGATAA | 1.06

Sequence | switch fluorescence ratio
GCGCGTAGAA | 0.994
GCGCGTGAAA | 0.997
GCGCGTGAGA | 0.95
GCGCTATAAA | 0.996
GCGCTCGATA | 1
GCGCTCTCCT | 1.29
GCGCTGAGAG | 1.03
GCGCTGGGG | 1.02
GCGCTTCCTA | 1.08
GCGCTTGGCT | 0.978
GCGCTTTGTT | 1
GCGGAAATGT | 1.01
GCGGAACGAG | 1.07
GCGGAACTCG | 1.08
GCGGAATTTT | 0.994
GCGGACCTCA | 1.02
GCGGACGGAG | 1.01
GCGGAGGAAA | 1.05
GCGGAGGCAA | 1.07
GCGGCAGCGA | 0.992
GCGGCCCGGA | 1.01
GCGGCTCTGG | 0.985
GCGGGAAAAT | 0.834
GCGGGAGACG | 0.978
GCGGGAGCTC | 0.973
